Reference: a compilation of properties of binary mixtures (doi:10.1016/j.fluid.2020.112621)
Some of these densities may be calculated back from excess volumes.

Test: xn = mol fraction of the nth substance listed
Settings: 101 kPa

CCC(=O)O.CCC(=O)[O-].CC[NH+](CC)CCO + CCCC[n+]1ccn(C)c1.COP(=O)([O-])OC
mass density [kg/m3]
Settings	x1 = 0.08	x1 = 0.1549	x1 = 0.2364	x1 = 0.3281	x1 = 0.4183	x1 = 0.4953	x1 = 0.6252	x1 = 0.7416	x1 = 0.8667	x1 = 1
278.15 K	–	1139.8	1125.4	1110.6	1098.4	1089.1	1076	1061	1047	1034
283.15 K	1152.8	1135.8	–	1106.4	1094.1	–	–	–	1043	1030
288.15 K	1149.2	1132.1	1117.6	1102.5	1090.2	1080.8	–	1053	1039	1026
293.15 K	1145.8	1128.3	1113.9	–	1086.1	1076.7	1064	1049	–	1022
298.15 K	1142.4	1124.5	1110.2	1094.9	1082.1	1072.6	1060	–	1031	–
303.15 K	–	1120.8	–	1091.1	–	1068.6	1056	1041	–	1014
308.15 K	1135.5	1117	1103.1	1087.1	–	1064.6	1052	1036	–	1010
313.15 K	1132.4	1113.3	1099.3	–	1070.2	–	1048	1032	1018	1006
318.15 K	1128.7	1109.7	1095.9	1079.5	1066.3	1056.5	–	1028	1014	1002
323.15 K	1125.3	1106.1	–	1075.7	1062.4	–	1040	1024	1010	998
328.15 K	1122	1102.5	–	1072	1058.5	1048.5	1035	–	–	994
333.15 K	1118.6	1099.4	1085.1	1068.3	1054.6	–	1031	1016	–	–
338.15 K	–	1095.6	–	1064.8	1050.8	1040.6	–	–	997	986
343.15 K	1112	1092.1	1078.1	1061.1	1047.1	–	1023	1008	993	982
348.15 K	1108.7	–	1074.6	1057.4	–	1032.9	–	1003	–	978
353.15 K	1105.4	–	1070.8	1053.7	–	1028.9	1015	999	985	973
358.15 K	1102.2	1081.8	1067.3	1050.1	–	–	–	995	980	969
363.15 K	1098.9	1078.5	1063.8	1046.4	1031.7	1020.9	1007	–	976	–
368.15 K	–	–	1060.4	1042.6	1028.1	1016.9	1003	–	972	960
373.15 K	1092.4	1071.7	1057.1	1039.1	1024	1013	999	–	967	–

CCCC(=O)[O-].CC[NH+](CC)CCO + CCCC[n+]1ccn(C)c1.COP(=O)([O-])OC
mass density [kg/m3]
Settings	x1 = 0.1023	x1 = 0.1989	x1 = 0.3026	x1 = 0.3985	x1 = 0.498	x1 = 0.6001	x1 = 0.6613	x1 = 0.8006	x1 = 0.8788	x1 = 1
278.15 K	1152.5	1131.9	1110.6	1092	1074.6	1057.4	1048.2	–	1015.1	–
283.15 K	1148.7	1128.1	1106.8	1088	1070.4	–	1043.9	1022.7	1010.7	–
288.15 K	–	1124.5	1102.9	1084.1	1066.4	1049.1	–	1018.5	1006.5	987.7
293.15 K	1141.9	1121.1	1099.3	–	–	–	1035.7	1014.3	–	983.4
298.15 K	1138.5	–	1095.6	1076.5	1058.6	1040.9	1031.6	1010.1	998.1	979.2
303.15 K	1135.1	–	1092	1072.7	1054.7	–	1027.5	1006	993.9	975
308.15 K	1131.7	1110.6	1088.6	–	1050.8	1033.1	1023.4	1001.8	989.7	970.8
313.15 K	1128	1107	–	1065.2	–	1029.2	–	997.7	985.5	966.5
318.15 K	–	1103.5	1081.2	1061.5	1043.1	–	1015.4	–	981.3	962.3
323.15 K	1121.3	–	1077.9	1057.8	1039.3	1021.4	–	989.4	977.2	958.1
328.15 K	1117.9	1096.7	1074.4	1054.1	1035.5	–	1007.4	985.2	973	953.8
333.15 K	1114.6	1093.3	1070.8	1050.6	1031.7	1013.4	1003.3	981.1	968.8	949.6
338.15 K	1111.2	1090.1	1067.4	1046.8	1027.9	1009.5	–	–	964.6	–
343.15 K	1107.9	–	1063.6	–	1024.1	–	995.4	972.8	960.4	941
348.15 K	1104.6	1083.2	1060.4	1039.6	–	1001.7	991.4	968.6	956.2	936.7
353.15 K	1101.4	1079.8	–	1036.2	1016.6	997.7	987.5	–	–	–
358.15 K	1098.1	1076.5	1053.5	–	1012.9	993.8	–	960.2	947.7	–
363.15 K	1094.8	1073.4	1050.1	1029.1	1009.1	989.9	979.3	956	943.4	923.5
368.15 K	1091.6	1069.8	–	1025.5	1005.6	986	975.3	951.8	939.1	–
373.15 K	1088.3	1066.5	1043.2	1021.9	1001.8	982.1	971.4	947.6	934.7	914.5
